# Among all 310,000 compounds or so, about 2,200 (0.71%) showed an effect of 50% or more. The effect is printed as a negative number. This is one part of the list.
# Target: human ether-à-go-go-related gene (hERG) potassium channel (human, UniProt Q12809)
# Experiment: primary screen, population patch clamp on CHO cells stably expressing hERG
# human ether-à-go-go-related gene (hERG) potassium channel, sequence (Q12809 whole entry, looked up): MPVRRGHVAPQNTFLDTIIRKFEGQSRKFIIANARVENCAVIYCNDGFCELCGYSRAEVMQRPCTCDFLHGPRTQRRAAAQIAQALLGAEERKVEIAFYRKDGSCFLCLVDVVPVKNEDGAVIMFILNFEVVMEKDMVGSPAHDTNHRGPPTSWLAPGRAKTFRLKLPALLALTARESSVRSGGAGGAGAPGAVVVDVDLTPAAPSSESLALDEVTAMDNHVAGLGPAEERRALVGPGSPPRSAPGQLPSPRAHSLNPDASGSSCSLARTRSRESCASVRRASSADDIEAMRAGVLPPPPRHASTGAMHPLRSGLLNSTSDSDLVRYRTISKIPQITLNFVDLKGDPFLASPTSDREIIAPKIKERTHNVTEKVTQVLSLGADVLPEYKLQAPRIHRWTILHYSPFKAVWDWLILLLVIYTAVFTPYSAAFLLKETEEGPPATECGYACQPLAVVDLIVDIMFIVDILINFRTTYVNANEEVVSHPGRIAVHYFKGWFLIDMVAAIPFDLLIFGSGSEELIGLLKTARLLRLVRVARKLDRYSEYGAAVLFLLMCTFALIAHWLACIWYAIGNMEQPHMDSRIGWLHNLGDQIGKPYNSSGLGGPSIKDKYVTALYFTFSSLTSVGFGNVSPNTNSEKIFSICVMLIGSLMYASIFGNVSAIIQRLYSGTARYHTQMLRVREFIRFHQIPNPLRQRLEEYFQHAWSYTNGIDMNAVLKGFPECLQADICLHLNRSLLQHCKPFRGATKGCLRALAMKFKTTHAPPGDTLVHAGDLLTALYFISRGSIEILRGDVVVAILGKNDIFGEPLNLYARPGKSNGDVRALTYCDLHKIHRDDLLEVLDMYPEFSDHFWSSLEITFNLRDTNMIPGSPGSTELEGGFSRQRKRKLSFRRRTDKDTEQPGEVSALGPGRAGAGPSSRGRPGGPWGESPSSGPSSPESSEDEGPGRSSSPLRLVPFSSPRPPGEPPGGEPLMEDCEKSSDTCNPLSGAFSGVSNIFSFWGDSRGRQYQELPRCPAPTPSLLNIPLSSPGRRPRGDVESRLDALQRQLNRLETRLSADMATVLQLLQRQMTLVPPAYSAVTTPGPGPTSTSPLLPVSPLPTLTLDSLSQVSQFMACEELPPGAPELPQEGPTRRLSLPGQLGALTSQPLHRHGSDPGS
row,SMILES,"hERG current change (%, negative = inhibition) at 1uM [%]"
1,COCCSc1nnc(NC(=O)c2ccc(NC(=O)C(C)C)cc2)s1,9.46
2,CCOc1ccccc1N(CC(=O)N(C)Cc1ccccc1)S(=O)(=O)c1ccccc1,-1.94
3,Nc1nnc(CC(=O)Nc2ccccc2)s1,9.21
4,CCN(CC)Cc1c[nH]c2ccccc12,6.6
5,CCOc1ccc(C(=O)C(C)OC(=O)Cn2[nH]c(=O)c3ccccc3c2=O)cc1 (centres unmarked),4.04
6,Cc1ccc(S(=O)(=O)N2C(=O)CCC2C(=O)O/N=C(\N)c2ccccc2)cc1 (centres unmarked),5.82
7,Cn1c(=O)[nH]c(Nc2ccc(F)cc2)c([N+](=O)[O-])c1=O,7.68
8,Cc1cc(C)c2c(=O)[nH]c(SCC(=O)Nc3ccc(Br)cc3)nc2n1,18.2
9,CN(C)S(=O)(=O)c1cc(NC(=O)CNCc2ccc(F)cc2)ccc1Cl.O=C(O)C(=O)O,5.02
10,CCC1(CC)Cc2ccccc2C(=C(C#N)C#N)N1,13.6
11,O=C(COC(=O)c1ccc(Br)o1)NC1CCCc2ccccc21 (centres unmarked),11.5
12,C=CCNCCOc1ccccc1-c1ccccc1.O=C(O)C(=O)O,3.97
13,CCN1CCN(CCCOc2ccc(Cl)cc2Br)CC1.O=C(O)C(=O)O,-45.7
14,Cc1ccc(S(=O)(=O)N2CCN(CC(=O)N/N=C\c3ccncc3)CC2)cc1,-26.2
15,O=C(O)c1ccc(S(=O)(=O)N(Cc2cccs2)CC2CCCO2)cc1 (centres unmarked),9.71
16,O=C1CNC(=S)N1CCOc1ccccc1,12.7
17,COc1ccccc1N1CCN(C2CCN(C(=O)c3cccc(F)c3)CC2)CC1.O=C(O)C(=O)O,8.64
18,O=[N+]([O-])c1ccc2nccn2c1,4.94
19,CCC(C)N1C(=O)NC(=O)C2(Cc3c(ccc4ccccc34)N(C)C2)C1=O (centres unmarked),8.68

row,SMILES,"hERG current change (%, negative = inhibition) at 1uM [%]"
1,N/C(=N\OC(=O)CSc1ccccc1)c1ccccn1,10.9
2,CC(C)C(=O)Nc1cccc(C(=O)NCc2ccc(S(N)(=O)=O)cc2)c1,6.91
3,CC(C)(CC(=O)O)CC(=O)N1CCN(c2nc3cc(Cl)ccc3s2)CC1,9.82
4,COC(=O)C1=C(C)N(Cc2ccco2)C(=O)/C1=C\c1ccc([N+](=O)[O-])cc1,5.21
5,Cc1ccccc1NC(=O)c1ccccc1NC(=O)CCC(=O)O,12.6
6,COc1cc(C(=O)NNC(=O)COc2ccc(Cl)cc2)ccc1OCC(=O)N1CCOCC1,7.94
7,COc1cc(CN2CCNC(=O)C2CC(=O)N2CCc3ccccc3C2)cc(OC)c1 (centres unmarked),4.46
8,CCC(=O)OCc1c(C(F)(F)F)nn(C)c1Sc1ccc(F)cc1,12.7
9,CCc1nn(CC(=O)N2CCN(CC)CC2)c(=O)c2cccn12,10.4
10,CCOC(=O)c1c(C)sc2c1N(C(C)=O)c1cc(Cl)ccc1S2,5.46
11,Clc1cc(-c2ccc(/C=N/n3cnnc3)o2)ccc1Br,3.54
12,O=c1[nH]c(SCc2ccccc2)nc2c1sc1ccccc12,14.7
13,O=c1c(CN2CCN(c3cccc(Cl)c3)CC2)coc2c(Cl)cc(Cl)cc12,10.4
14,COC(=O)c1ccc(C(=O)OC)c(NC(=S)N2CCCCC2)c1,-7.19
15,COc1ccc(CCNC(=O)C(=O)NCC2OCCCN2S(=O)(=O)c2cc(C)ccc2C)cc1 (centres unmarked),7.7
16,CCOC(=O)C1=C(C)NC2=C(C(=O)CC(C)(C)C2)C1c1ccc(O)c(OCC)c1 (centres unmarked),12.3
17,CCN(CC)S(=O)(=O)c1ccc(OC)c(NC(=O)C(C)Oc2ccc3c(C)cc(=O)oc3c2)c1 (centres unmarked),-2.2
18,CCOc1ccc(C(C)C)cc1S(=O)(=O)n1ccnc1C,11.8
19,O=C(O)CCc1ccc(-c2ccccc2)n1-c1ccc(C(=O)O)cc1,10.7

row,SMILES,"hERG current change (%, negative = inhibition) at 1uM [%]"
1,COC(=O)c1ccc(NC(=S)NCCc2cccc(C)c2)cc1,6.21
2,CN1C(=O)/C(=C/c2cn(CC(=O)N3CCCCC3)c3ccccc23)c2ccccc21,12.8
3,CCOc1cc(/C=C/C(=O)OCC(=O)NCc2ccco2)cc(Cl)c1OC,-13.2
4,COc1ccc(/C(N)=N/OC(=O)C2CCC(=O)N2S(=O)(=O)c2ccc(C)cc2)cc1OC (centres unmarked),13.6
5,COc1ccc(S(=O)(=O)N2CCCOC2CNC(=O)C(=O)NCCc2ccco2)cc1C (centres unmarked),9.39
6,COc1ccc(-n2nc3c(c2NC(=O)COc2ccccc2)CS(=O)C3)cc1 (centres unmarked),-3.74
7,COc1ccc(C(=O)C(c2ccccc2)N2CCOCC2)cc1.Cl (centres unmarked),-2.23
8,O=C(O)[C@H]1CCCC[C@H]1C(=O)Nc1ccc(Nc2ccccc2)cc1,4.76
9,Cc1cc(-c2nnc3n2N=C(c2ccccc2Br)CS3)n[nH]1,8.21
10,CC1(C)CC(=O)C=C(NC2CCCCCC2)C1,5.7
11,CC(C)C(=O)N1CCN(c2ccccc2NC(=O)COc2ccc(C3CCCCC3)cc2)CC1,-8.38
12,COc1ccc(/C=N/Nc2nncn2N)cc1Br,15.2
13,Cc1nc2sc(C(N)=O)c(N)c2c2c1CCCC2,11.2
14,Cc1nc(CNC(=O)c2cc(COc3c(F)cccc3F)on2)cs1,5.1
15,CN(CC(=O)Nc1cc(Cl)ccc1Cl)C1CCS(=O)(=O)C1 (centres unmarked),10.1
16,Cc1ccc(C(=O)CSc2nnc(-c3ccc4[nH]c(C)c(C)c4c3)o2)cc1C,13.3
17,O=C1CCCCN1CCCC(=O)N1CCCC(Nc2ccc(F)c(F)c2)C1 (centres unmarked),8.46
18,COc1ccc(N2Cc3cccc(C(=O)NC(C)CCc4ccco4)c3C2=O)cc1 (centres unmarked),5.97

# Reference: PMC4336329 (PLoS ONE, 2015)
